The values that follow come from US20250082624A1, “METHODS OF TREATING COGNITIVE IMPAIRMENT” (NeuroTherapia, Inc., priority 2023, published 2025).

Series [1] concerns volunteers and AD patients. The series is described as follows: 24-hour EEG safety assessment and post-hoc qEEG analysis. The format is in vivo, human. Particulars: Phase 1b, all 4 cohorts. Here is the method: Protocol-specified EEG assessments were for safety assessment of any potential epileptogenic changes. A post-hoc analysis of quantitative EEG (qEEG) changes was also performed.
(§1) An informational letter was filed with the FDA to inform them of this study. The study was designed as follows: • 3 healthy cohorts (cohorts A-C) followed by AD cohort (cohort D) treated at MTD • 6 treated, 2 placebos in each cohort • Doses: 10, 30, 90 mg/treatment—latter doses can be adjusted based on PK assessment • In unit, 7 days of treatment • Monitor vertigo with various tests: (1) timed get-up and go, (2) Nystagmus test, (3) Romberg test, and (4) changes in orthostatic blood pressure (Day 1, 3 and 8) • Use 24 hr EEG monitoring for CNS safety assessment • Assess plasma biomarkers of inflammation and AD pre- and post-treatment in AD cohort • Assess changes on cognition post-treatment using MMSE and ADAS-cog • Fed/fasted study to determine food effects on PK as a subset of the Phase 1b
No subjects had clinically meaningful abnormal values or changes from baseline, nor differences between placebo and active drug, in EEG readings in any of the 4 cohorts.

The subject of series [2] is volunteers and AD patients. The series is described as follows: Orthostatic blood pressure and vertigo tests (timed get-up and go, Nystagmus test, Romberg test). It is filed as in vivo, human. Particulars: Phase 1b, 10, 30, 90 mg oral QD for 7 days. Here is the method:
Assessments: Subjects were assessed for changes in vital signs, orthostatic blood pressure, Romberg test, nystagmus, timed get up and go, electrocardiograms, electroencephalograms (EEG), and laboratory studies. Subjective questionnaires of drug effects (ARCI-M) were administered. Cohort B returned and received a single repeat dose after a standard high-fat meal. The AD cohort also underwent cognitive testing (MMSE, ADAS-COG, MOCA) and had blood samples for biomarkers drawn.
as §1

Molecules are shown by their SMILES. Entries after “also recorded” stand apart in the source; their conditions may differ. Some entries of the source have several records that differ or are many. This is not the full list of results. The source may hold further records. Values that stand side by side seem to repeat one measurement; a mean can stand among them. Brackets tell where a record comes from. Letters hold for one entry only.

As for `CC1(Cc2ccccc2)COc2cc(C(=O)N3CCCCC3)ccc21` (centres unmarked) [NTRX-07, 3-benzyl-3-methyl-2,3-dihydrobenzofuran-6-carboxylic acid-piperidine amide], the “Abnormal EEG / brain activity (24-hour EEG)” value in series [1] was “No participants had abnormalities on the EEG [passage A]; also recorded: no evidence of abnormal brain activity [passage B]; also recorded: No change in EEG [table]”. For the same compound, the “Vertigo: timed get-up and go, Nystagmus test, Romberg test” value in series [2] was “No participants had changes [passage A] and no evidence of vertigo at any dose [passage B] and No evidence [table]”.
